In the supplement of paper PMC12067093, “Discovery and optimisation of a covalent ligand for TRIM25 and its application to targeted protein ubiquitination” (Chemical Science, 2025):
The full data set covers some 21,000 targets. This sample favours those with the largest changes.

Compound: CC1Cc2ccccc2N1C(=O)C1CCCN(C1)C(=O)CCl (mixture of isomers) [TRIM25 ligand 11 (diastereomer mixture)]
Experiment: probe-labelled cysteine peptide fold change vs DMSO (competition) (log2 fold change); higher = less target engagement (more negative = stronger competition)
Settings: THP-1, incubation time: 4 h
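Note: competitive chemoproteomic profiling in live THP-1 cells with an iodoacetamide desthiobiotin (IA-DTB) probe, comparing probe-labelled peptide intensities in compound-treated cells against DMSO-treated controls.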

Target	probe-labelled cysteine peptide fold change (10 µM)	probe-labelled cysteine peptide fold change (50 µM)
NF1_P21359_904_LLSLMVCNHEK (UniProt P21359)	-0.0166	-0.0874
NCF2_P19878_499_VNEEWLEGECK (UniProt P19878)	0.0831	0.123
PDCL_Q13371_291_NSATCHSEDSDLEID (UniProt Q13371)	-0.177	-0.396
NTPCR_Q9BSD7_101_NADCSSGPGQR (UniProt Q9BSD7)	0.353	1.25
NRDC_O43847_690_IVNTPQGCLWYKK (UniProt O43847)	-0.377	-0.143
PCLAF_Q15004_99_ACPLQPDHTNDEKE (UniProt Q15004)	-0.414	-0.612
NOA1_Q8NC60_272_LWEDCAR (UniProt Q8NC60)	-0.113	0.116
NUDT16L1_Q9BRJ7_88_VLGLGLGCLR (UniProt Q9BRJ7)	-0.224	-0.197
PARK7_Q99497_106_GLIAAICAGPTALLAHEIGFGSK (UniProt Q99497)	-1.12	-4.02
NIT1_Q86X76_80_LGACLAFLPEAFDFIARDPAETLHLSEPLGGK (UniProt Q86X76)	0.407	-0.633
ODF2_Q5BJF6_708_ECGTLAR (UniProt Q5BJF6)	0.00251	0.561
P4HB_P07237_397_KNVFVEFYAPWCGHCK (UniProt P07237)	-0.364	-0.687
NRAS_P01111_51_KQVVIDGETCLLDILDTAGQEEYSAMRDQYMR<|>HRAS_P01112_51_KQVVIDGETCLLDILDTAGQEEYSAMRDQYMR (UniProt P01112+P01111)	-0.585	-0.344
